Sequences and labels used below:
B1: HLA-B_Y137_YF (peptide)
chain: RLLRGHDQFAF
B2: HLA-B_Y123_S121V (peptide)
chain: TLQVMYGCDVG
B3: HLA-DQB1_Y62_T60S_YF (peptide)
chain: RFVSRYIFNRE
B4: HLA-DPB1_Y57_E62Q_YF (peptide)
chain: RFLERYIFNRQ
B5: HLA-B_Y83 (peptide)
chain: QEGPEYWDRNT
B6: HLA-B_Y137_H137Y_YF (peptide)
chain: RLLRGYDQFAF
B7: HLA-C_Y195_R194G (peptide)
chain: EWLRGYLENGK
B8: HLA-B_Y51_D54G (peptide)
chain: FISVGYVDGTQ
B9: HLA-B_Y123_Y123F (peptide)
chain: TLQSMFGCDVG
B10: HLA-DQB1_Y62_YF (peptide)
chain: RFVTRYIFNRE
B11: HLA-DRB1_Y107_A103E_YF (peptide)
chain: AEVDTYCRHNF
B12: HLA-B_Y123_Y123S (peptide)
chain: TLQSMSGCDVG
B13: HLA-DPB1_Y57_Y57D (peptide)
chain: RFLERDIYNRE
B14: HLA-C_Y137_Y137H (peptide)
chain: RLLRGHDQSAY
B15: HLA-B_Y137 (peptide)
chain: RLLRGHDQYAY
B16: HLA-C_Y137_S140L (peptide)
chain: RLLRGYDQLAY
B17: HLA-C_Y137_Y137H_YF (peptide)
chain: RLLRGHDQSAF
B18: HLA-C_Y183_T187E (peptide)
chain: EQLRAYLEGEC
B19: HLA-C_Y195_E197K (peptide)
chain: EWLRRYLKNGK

The other results are listed elsewhere or left out. Cut-off read from the data, not from the text of the source: active = 3.2 or more and inactive = the rest. The signal is at background level for most entries.
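Note: displayed peptides selected on beads carrying the immobilized SH2 domain, with library peptides lacking any tyrosine serving as negative controls.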

One assay deals with SHP2 C-SH2 domain E139D. The assay can be described thus: enrichment score (SH2-bound / input frequency) (ratio); bacterial display of known human phosphotyrosine sites (pTyr-Var adds point mutants) read by sequencing; higher = stronger binding; tyrosines were phosphorylated by kinases first. Conditions: peptide library: pTyr-Var.
For B1, the enrichment score was inactive: 1.18.

With B2, the enrichment score was inactive: 1.31.

Take B3: the enrichment score was inactive: 0.409.

In the case of B4, the enrichment score was inactive: 0.906.

Turning to B5, the enrichment score was inactive: 0.554.

On to B6, for which the enrichment score is inactive: 1.49.

In the case of B7, the enrichment score is inactive: 1.08.

Take B8: the enrichment score was inactive: 1.24.

B9: the enrichment score is inactive: 1.41.

On to B10, for which the enrichment score is inactive: 0.395.

As to B11, the enrichment score was inactive: 0.936.

Turning to B12, the enrichment score is inactive: 0.739.

On to B13, for which the enrichment score was inactive: 0.807.

As to B14, the enrichment score was inactive: 1.03.

For the molecule B15, the enrichment score was inactive: 1.38.

In the case of B16, the enrichment score was inactive: 1.48.

B17: the enrichment score is inactive: 1.1.

B18: the enrichment score is inactive: 0.863.

B19: the enrichment score was inactive: 0.385.

A further assay has as its target SHP2 C-SH2 domain wild-type. The description is as above. Conditions: peptide library: pTyr-Var.
In the case of B1, the enrichment score is inactive: 1.33.

As for B2, the enrichment score is inactive: 1.17.

With B3, the enrichment score was inactive: 0.189.

Consider B4, for which the enrichment score is inactive: 0.835.

For the molecule B5, the enrichment score is inactive: 0.63.

B6: the enrichment score is inactive: 1.34.

Turning to B7, the enrichment score was inactive: 0.893.

Take B8: the enrichment score is inactive: 1.11.

As for B9, the enrichment score is inactive: 1.26.

As to B10, the enrichment score was inactive: 0.377.

B11: the enrichment score was inactive: 1.06.

B12: the enrichment score is inactive: 0.852.

Consider B13, for which the enrichment score is inactive: 0.545.

B14: the enrichment score was inactive: 0.938.

Consider B15, for which the enrichment score is inactive: 1.34.

Regarding B16, the enrichment score was inactive: 0.992.

Take B17: the enrichment score was inactive: 1.05.

For the molecule B18, the enrichment score was inactive: 1.14.

With B19, the enrichment score was inactive: 0.288.

A further assay addresses SHP2 N-SH2 domain L43F. The description is as above. Conditions: peptide library: pTyr-Var.
On to B1, for which the enrichment score is inactive: 1.32.

Take B2: the enrichment score is inactive: 0.938.

Regarding B3, the enrichment score is inactive: 0.436.

Turning to B4, the enrichment score is inactive: 0.943.

As to B5, the enrichment score was inactive: 0.395.

For B6, the enrichment score is inactive: 1.34.

Regarding B7, the enrichment score was inactive: 1.09.

Take B8: the enrichment score is inactive: 1.14.

With B9, the enrichment score was inactive: 0.788.

As to B10, the enrichment score was inactive: 0.33.

On to B11, for which the enrichment score is inactive: 0.82.

Regarding B12, the enrichment score is inactive: 0.704.

B13: the enrichment score is inactive: 0.99.

As for B14, the enrichment score is inactive: 1.22.

Take B15: the enrichment score is inactive: 1.35.

Take B16: the enrichment score was inactive: 1.37.

With B17, the enrichment score was inactive: 1.1.

B18: the enrichment score was inactive: 0.828.

For the molecule B19, the enrichment score is inactive: 0.296.

The next assay has as its target SHP2 N-SH2 domain T42A. The assay is described as above. The settings on record: peptide library: pTyr-Var.
Take B1: the enrichment score is inactive: 1.19.

Turning to B2, the enrichment score was inactive: 1.1.

Turning to B3, the enrichment score is inactive: 0.314.

With B4, the enrichment score is inactive: 0.904.

For the molecule B5, the enrichment score was inactive: 0.484.

B6: the enrichment score was inactive: 1.27.

On to B7, for which the enrichment score is inactive: 1.13.

For the molecule B8, the enrichment score was inactive: 1.12.

As for B9, the enrichment score was inactive: 0.798.

For the molecule B10, the enrichment score was inactive: 0.557.

Take B11: the enrichment score is inactive: 0.832.

For B12, the enrichment score is inactive: 0.557.

As for B13, the enrichment score was inactive: 0.655.

For the molecule B14, the enrichment score is inactive: 0.817.

For the molecule B15, the enrichment score is inactive: 1.06.

For the molecule B16, the enrichment score was inactive: 1.14.

B17: the enrichment score is inactive: 0.788.

With B18, the enrichment score was inactive: 1.16.

Consider B19, for which the enrichment score is inactive: 0.187.

In the next assay the target is SHP2 N-SH2 domain T52S. The description is as above. Conditions: peptide library: pTyr-Var.
On to B1, for which the enrichment score is inactive: 1.39.

As for B2, the enrichment score is inactive: 1.26.

With B3, the enrichment score is inactive: 0.172.

Take B4: the enrichment score is inactive: 0.768.

Turning to B5, the enrichment score is inactive: 0.721.

In the case of B6, the enrichment score was inactive: 1.29.

Consider B7, for which the enrichment score was inactive: 1.12.

In the case of B8, the enrichment score was inactive: 1.17.

Turning to B9, the enrichment score is inactive: 0.833.

For B10, the enrichment score is inactive: 0.473.

With B11, the enrichment score is inactive: 0.965.

As to B12, the enrichment score was inactive: 0.708.

As for B13, the enrichment score is inactive: 0.762.

For the molecule B14, the enrichment score was inactive: 1.08.

For B15, the enrichment score is inactive: 1.37.

Consider B16, for which the enrichment score is inactive: 0.998.

On to B17, for which the enrichment score was inactive: 1.09.

As to B18, the enrichment score is inactive: 0.873.

Regarding B19, the enrichment score is inactive: 0.208.

Another assay concerns the target SHP2 N-SH2 domain wild-type. The assay is described as above. The settings on record: peptide library: pTyr-Var.
As to B1, the enrichment score is inactive: 1.39.

Take B2: the enrichment score is inactive: 1.21.

For the molecule B3, the enrichment score was inactive: 0.119.

Turning to B4, the enrichment score is inactive: 0.858.

B5: the enrichment score is inactive: 0.566.

Consider B6, for which the enrichment score was inactive: 1.31.

Consider B7, for which the enrichment score was inactive: 1.05.

With B8, the enrichment score is inactive: 1.28.

Consider B9, for which the enrichment score was inactive: 1.13.

As to B10, the enrichment score was inactive: 0.344.

In the case of B11, the enrichment score was inactive: 1.15.

Turning to B12, the enrichment score was inactive: 0.76.

On to B13, for which the enrichment score was inactive: 0.775.

On to B14, for which the enrichment score was inactive: 1.08.

B15: the enrichment score is inactive: 1.34.

With B16, the enrichment score is inactive: 1.22.

As for B17, the enrichment score was inactive: 1.22.

For B18, the enrichment score is inactive: 1.01.

As to B19, the enrichment score was inactive: 0.341.

The record behind these values is the supplement of paper PMC10369915.
